This is one part of the list. Sequences were assembled here from the parent chain. Values near 0.05 are background.
B1: TEV protease; numbered along this chain (parent)
chain: MGESLFKGPRDYNPISSSICHLTNESDGHTTSLYGIGFGPFIITNKHLFRRNNGTLVVQSLHGVFKVKDTTTLQQHLVDGRDMIIIRMPKDFPPFPQKLKFREPQREERICLVTTNFQTKSMSSMVSDTSCTFPSGDGIFWKHWIQTKDGQCGSPLVSTRDGFIVGIHSASNFTNTNNYFTSVPKNFMELLTNQEAQQWVSGWRLNADSVLWGGHKVFMVKPEEPFQPVKEATQL

Variants of: B1
Assay: raw area under fraction-flipped curve 0-4 h after induction (AUC4h, not background-subtracted), DNA-recorder readout of cleavage of the substrate (dimensionless); higher = more cleavage of the substrate by the protease variant
Details: temperature: 34 °C; time window: 0-4 h after rhamnose induction
Experimental: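 In vivo DNA recorder in E. coli TOP10(DE3) ΔrhaA at 34 °C. Each TEVp single-site mutant (parent TEVp 0) is paired with a single-site variant of the 7-mer TEVs (canonical ENLYFQ|S). The substrate sits between flexible linkers in a Bxb1-sfGFP-TEVs-SsrA fusion, so cleavage stabilises Bxb1 and speeds flipping of a recombination array, read by NGS. The value is the raw area under the fraction-flipped curve over 0-4 h after rhamnose induction (AUC4h), with ≥20 reads per time point. It is not background-subtracted; inactive controls average about 0.047.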
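Also: Bxb1 expression induced with 0.2% (w/v) L-rhamnose at OD600 near 0.5, cultures sampled hourly, flipped fraction per protease–substrate barcode pair counted by paired-end Illumina sequencing.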

Variant | area with substrate ENLYFCS | area with substrate ENLYFDS | area with substrate ENLYFES | area with substrate ENLYFFS | area with substrate ENLYFGS | area with substrate ENLYFHS | area with substrate ENLYFIS | area with substrate ENLYFKS | area with substrate ENLYFMS | area with substrate ENLYFNS | area with substrate ENLYFPS | area with substrate ENLYFWS | area with substrate ENLYFLS | area with substrate ENLYFRS | area with substrate ENLYFSS | area with substrate ENLYFTS | area with substrate ENLYFVS | area with substrate ENLYFYS
MGESLFKGPRDYNPISSSICHLTNESDGHTTSLYGIGFGPFIITNKHLFRANNGTLVVQSLHGVFKVKDTTTLQQHLVDGRDMIIIRMPKDFPPFPQKLKFREPQREERICLVTTNFQTKSMSSMVSDTSCTFPSGDGIFWKHWIQTKDGQCGSPLVSTRDGFIVGIHSASNFTNTNNYFTSVPKNFMELLTNQEAQQWVSGWRLNADSVLWGGHKVFMVKPEEPFQPVKEATQL [R51A] | 0.0524 | 0.0545 | 0.0682 | 0.064 | 0.063 | 0.0654 | 0.0553 | 0.0493 | 0.0659 | 0.072 | 0.0593 | 0.0505 | – | – | – | – | – | –
MGESLFKGPRDYNPSSSSICHLTNESDGHTTSLYGIGFGPFIITNKHLFRRNNGTLVVQSLHGVFKVKDTTTLQQHLVDGRDMIIIRMPKDFPPFPQKLKFREPQREERICLVTTNFQTKSMSSMVSDTSCTFPSGDGIFWKHWIQTKDGQCGSPLVSTRDGFIVGIHSASNFTNTNNYFTSVPKNFMELLTNQEAQQWVSGWRLNADSVLWGGHKVFMVKPEEPFQPVKEATQL [I15S] | 0.0575 | 0.0561 | 0.0613 | 0.0684 | – | 0.0461 | 0.0512 | 0.0567 | 0.049 | 0.0613 | 0.0534 | 0.0304 | 0.0345 | 0.0576 | 0.0543 | 0.0518 | 0.0553 | –
MGESLFKGPRDYNPISSSICHLTNESDGHTTSLYGIGFGPFIITHKHLFRRNNGTLVVQSLHGVFKVKDTTTLQQHLVDGRDMIIIRMPKDFPPFPQKLKFREPQREERICLVTTNFQTKSMSSMVSDTSCTFPSGDGIFWKHWIQTKDGQCGSPLVSTRDGFIVGIHSASNFTNTNNYFTSVPKNFMELLTNQEAQQWVSGWRLNADSVLWGGHKVFMVKPEEPFQPVKEATQL [N45H] | 0.0509 | 0.0613 | – | 0.0682 | 0.0718 | – | 0.0567 | 0.0835 | 0.0677 | 0.0589 | 0.064 | 0.0596 | 0.0556 | 0.0584 | 0.0725 | 0.0487 | – | 0.0633
MGESLFKGPRDYNPISSSICHLTNESDGHTPSLYGIGFGPFIITNKHLFRRNNGTLVVQSLHGVFKVKDTTTLQQHLVDGRDMIIIRMPKDFPPFPQKLKFREPQREERICLVTTNFQTKSMSSMVSDTSCTFPSGDGIFWKHWIQTKDGQCGSPLVSTRDGFIVGIHSASNFTNTNNYFTSVPKNFMELLTNQEAQQWVSGWRLNADSVLWGGHKVFMVKPEEPFQPVKEATQL [T31P] | 0.0636 | 0.0524 | 0.0729 | 0.0615 | 0.0484 | 0.0516 | 0.043 | 0.0504 | 0.0528 | – | 0.0546 | 0.0611 | 0.0587 | 0.0701 | 0.0632 | 0.0589 | – | 0.0472
MGESLFKGPRDYNPISSSICHLTNESDGHTTSLYGIGFGPFIITNKHLFDRNNGTLVVQSLHGVFKVKDTTTLQQHLVDGRDMIIIRMPKDFPPFPQKLKFREPQREERICLVTTNFQTKSMSSMVSDTSCTFPSGDGIFWKHWIQTKDGQCGSPLVSTRDGFIVGIHSASNFTNTNNYFTSVPKNFMELLTNQEAQQWVSGWRLNADSVLWGGHKVFMVKPEEPFQPVKEATQL [R50D] | 0.0668 | – | 0.0746 | – | – | – | 0.0645 | – | 0.0479 | 0.0723 | – | 0.0458 | 0.0714 | – | 0.0359 | – | – | –
MGESLFKGPRSYNPISSSICHLTNESDGHTTSLYGIGFGPFIITNKHLFRRNNGTLVVQSLHGVFKVKDTTTLQQHLVDGRDMIIIRMPKDFPPFPQKLKFREPQREERICLVTTNFQTKSMSSMVSDTSCTFPSGDGIFWKHWIQTKDGQCGSPLVSTRDGFIVGIHSASNFTNTNNYFTSVPKNFMELLTNQEAQQWVSGWRLNADSVLWGGHKVFMVKPEEPFQPVKEATQL [D11S] | 0.0656 | 0.0678 | 0.0707 | 0.0767 | 0.0572 | – | 0.0568 | 0.0588 | 0.0756 | 0.0639 | 0.0592 | 0.0588 | 0.0642 | 0.0632 | 0.0735 | 0.0599 | 0.0533 | 0.0675
MGESLFKGPRDYNPISSSICHLTNESKGHTTSLYGIGFGPFIITNKHLFRRNNGTLVVQSLHGVFKVKDTTTLQQHLVDGRDMIIIRMPKDFPPFPQKLKFREPQREERICLVTTNFQTKSMSSMVSDTSCTFPSGDGIFWKHWIQTKDGQCGSPLVSTRDGFIVGIHSASNFTNTNNYFTSVPKNFMELLTNQEAQQWVSGWRLNADSVLWGGHKVFMVKPEEPFQPVKEATQL [D27K] | 0.0461 | – | 0.0479 | – | – | 0.0616 | 0.0545 | – | 0.065 | 0.0595 | 0.0597 | – | – | 0.0686 | – | – | – | 0.0521
MGESLFKGPRDYNPISSSICHLTNESDGHTTSLYGDGFGPFIITNKHLFRRNNGTLVVQSLHGVFKVKDTTTLQQHLVDGRDMIIIRMPKDFPPFPQKLKFREPQREERICLVTTNFQTKSMSSMVSDTSCTFPSGDGIFWKHWIQTKDGQCGSPLVSTRDGFIVGIHSASNFTNTNNYFTSVPKNFMELLTNQEAQQWVSGWRLNADSVLWGGHKVFMVKPEEPFQPVKEATQL [I36D] | 0.0421 | 0.0499 | 0.0338 | 0.0535 | 0.0297 | – | 0.0398 | 0.0478 | 0.0425 | 0.0464 | 0.0365 | 0.0212 | – | 0.0501 | 0.0464 | 0.0501 | 0.0452 | 0.0328
MGESLFKGPRDYNPISSSICHLTNEKDGHTTSLYGIGFGPFIITNKHLFRRNNGTLVVQSLHGVFKVKDTTTLQQHLVDGRDMIIIRMPKDFPPFPQKLKFREPQREERICLVTTNFQTKSMSSMVSDTSCTFPSGDGIFWKHWIQTKDGQCGSPLVSTRDGFIVGIHSASNFTNTNNYFTSVPKNFMELLTNQEAQQWVSGWRLNADSVLWGGHKVFMVKPEEPFQPVKEATQL [S26K] | 0.0599 | 0.0613 | 0.0607 | 0.0578 | 0.0706 | 0.063 | 0.0532 | 0.0674 | 0.0701 | 0.0592 | 0.0559 | 0.0583 | 0.0584 | 0.0679 | – | 0.0762 | 0.0717 | 0.061
